# Reference: PubChem BioAssay AID651820 (National Center for Advancing Translational Sciences (NCATS), 2012)
# The whole screen tested about 340,000 compounds, of which about 12,000 (3.5%) were called active. Inconclusive means that the source gave no clear call. Such entries were picked first, then a sample of the others. The call rests on the fitted dose curve; in most records, active means well fitted inhibition curve with a large enough effect; inconclusive means small, poorly fitted or top-dose-only effect, or another doubt; inactive means no such curve, though single readings can be large or run the other way. No potency is given beside an inconclusive call; the fits are too rough.
# Experiment: qHTS Assay for Inhibitors of Hepatitis C Virus (HCV)
# Settings: Huh7.5.1 HCVcc-Cre (HCVcc is cell-culture hepatitis C virus) infection, luciferase reporter, 44 h; series mostly up to 41.8 µM
# Outline: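 Compounds are dispensed onto cells plated 4 h earlier at 1,000 per well, with HCVcc-Cre virus (about 0.5 moi) added next. Following 44 h of culture, luminescent signal is measured for 15 sec after 15 min with substrate at room temperature.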
# Potency means the concentration at half of the fitted maximal effect; tags describe the fitted curve by direction and shape.
row,Structure (SMILES),Potency
1,COc1ccc(-c2cc(=O)c3cc(F)ccc3[nH]2)cc1,inactive
2,COc1cccc(OCCn2cc(C(=O)c3ccco3)c3ccccc32)c1,active: 20 µM
3,CCn1cc(CN2CCN(CCC(C)C)C(CCO)C2)c2ccccc21 (stereo unspecified),inactive
4,COc1ccccc1C(=O)N/C(=C/c1ccc(Br)cc1)C(=O)N1CCCC1,inactive
5,COc1cc(C(=O)NC(=S)Nc2ccc(Cl)c(C(=O)O)c2)cc(OC)c1OC,inactive
6,CCCc1ncc(CN2CCC(C(=O)Nc3cccc(-c4cscn4)c3)CC2)cn1,active: 11.2 µM
7,CN1CCN(c2ccc(-c3cccc(NC(=O)COc4ccc(Cl)cc4Cl)c3)nn2)CC1,active: 11.2 µM
8,Cc1cc(/C=C2\C(=O)NC(=O)N(Cc3ccccc3Cl)C2=O)c(C)n1-c1ccc(C(=O)O)cc1,inactive
9,CCc1ccc(-c2cc(C)no2)cc1S(=O)(=O)NCCc1ccccc1,"inconclusive [inhibitor, single point]"
10,Cc1cccc(N2CCC(N3CCN(C4CCCCC4)C(CCO)C3)CC2)c1C (stereo unspecified),"inconclusive [inhibitor, partial curve]"
11,CN(CC(=O)NCCc1ccccc1)S(=O)(=O)c1cccc2nsnc12,"inconclusive [inhibitor, full curve]"
12,COC(=O)c1cc(=O)n(CCc2ccc(OC)c(OC)c2)c(=Nc2ccc(F)c(Cl)c2)s1,"inconclusive [inhibitor, partial curve]"
13,N#Cc1ccc(C23CC4(C2)[C@H](CN(P(=O)(c2ccccc2)c2ccccc2)[C@@H]4c2ccccc2)C3c2ccc(Cl)nc2)cc1 (stereo partly specified),"inconclusive [inhibitor, single point]"
14,COc1ccc(CNC(=O)/C=C/c2cc([N+](=O)[O-])ccc2OC(F)F)cc1OC,"inconclusive [inhibitor, partial curve, poor fit]"
15,O=C(NCCc1ccc(Cl)cc1)c1ccc2nc(N3CCOCC3)sc2c1,inactive
16,CC(C)c1cc(C(=O)Nc2cccc(Cl)c2)no1,"inconclusive [inhibitor, single point]"
17,CCOC(=O)c1[nH]c(C)c(C(=O)Nc2cc(OC)ccc2OC)c1C,"inconclusive [inhibitor, full curve]"
18,Cc1cc(N2C(=O)c3ccc(C(=O)Nc4ccccc4O)cc3C2=O)no1,inactive
19,Cc1ccc(C(=O)NC(Cc2cccc(C(F)(F)F)c2)C(=O)O)cc1 (stereo unspecified),"inconclusive [inhibitor, single point]"
20,CC(=O)Nc1ccc(S(=O)(=O)N/N=C/c2cccnc2)cc1,inactive
21,CNc1nc(N/N=C/c2ccc([N+](=O)[O-])cc2)nc(Nc2ccccc2)n1,"inconclusive [inhibitor, single point]"
22,O=C(Cn1cccc1C(=O)c1ccccc1)NCc1ccccn1,inactive
23,COc1ccc(Cl)cc1NC(=O)CN1CCC(n2nnc3cc(C)ccc32)CC1,active: 5.01 µM
24,Cc1cccc(-c2nc(-c3ccncc3)no2)c1,"inconclusive [inhibitor, single point]"

row,Structure (SMILES),Potency
1,CC(C)Cc1nc2oc3c(Cl)ncnc3c2c2c1CCC2,active: 4.47 µM
2,CCOC(=O)C1(Cc2ccccc2)CCN(Cc2cn[nH]c2-c2ccccc2)CC1,"inconclusive [inhibitor, single point]"
3,COc1cc(OC)c(NC(=O)C2CCN(S(=O)(=O)c3ccc4c(c3)CC(C)N4C(C)=O)CC2)cc1Cl (stereo unspecified),"inconclusive [inhibitor, single point]"
4,C[C@H]1NC(=O)[C@@]2(C)[C@H](c3ccccc3)[C@H]3COc4ccccc4[C@@H]3N2C1=O,inactive
5,Cc1ccc(N(CC(=O)NCc2ccco2)C(=O)CCC(=O)Nc2nccs2)cc1C,inactive
6,CNc1cc(Cl)c2nonc2c1[N+](=O)[O-],"inconclusive [inhibitor, single point]"
7,OC(COc1ccc(CNCCc2ccccc2F)cc1)CN1CCCCC1 (stereo unspecified),"inconclusive [inhibitor, full curve]"
8,Cc1cc(NC(=O)c2ccc(Br)c(S(=O)(=O)N3CCCC3)c2)no1,"inconclusive [inhibitor, partial curve]"
9,CCC(Oc1cc(Cl)ccc1Cl)C(=O)N1CCC2(CC1)OCCO2 (stereo unspecified),inactive
10,CC1c2c([nH]c3ccccc23)CCC1C(=O)O (stereo unspecified),inactive
11,O=C(c1ccc(Nc2cccc(C(F)(F)F)c2)nc1)N1CCCC1,inactive
12,CN(C)CCCNc1ccc(-c2cc(Nc3cccc(Cl)c3)ncn2)cn1,"inconclusive [inhibitor, single point]"
13,O=C(Oc1cccc([N+](=O)[O-])c1)c1cc(-c2ccccc2)nc2ccccc12,inactive
14,COc1ccc(CN(C)C(=S)Nc2ccc(Cl)cc2Cl)cc1,"inconclusive [inhibitor, single point]"
15,CC(=O)Nc1ccc(S(=O)(=O)n2nc(-c3ccc(C)cc3)nc2N)cc1,"inconclusive [inhibitor, single point]"
16,CCOC(=O)C(=CNc1ccccc1C)C(=O)OCC,"inconclusive [inhibitor, partial curve, poor fit]"
17,Cc1ccc(C(=O)NC2CCN(Cc3ccccc3)CC2)cc1S(=O)(=O)N1CCOCC1,"inconclusive [inhibitor, full curve]"
18,Cc1ccccc1NC(=S)NCc1cccn1C,"inconclusive [inhibitor, partial curve]"
19,COc1ccc(O)c(C(=O)c2cnc3onc(C(C)C)c3c2)c1,"inconclusive [inhibitor, full curve, poor fit]"
20,CCOc1ccccc1C(=O)Nc1cnn(Cc2ccc(F)cc2)c1,"inconclusive [inhibitor, partial curve]"
21,CC1=NN(c2ccccc2)C(=O)/C1=C/C=C/c1ccc(N(C)C)cc1,inactive
22,O=C(N/C(=C\c1ccc([N+](=O)[O-])cc1)C(=O)N1CCCCC1)c1ccccc1Br,"inconclusive [inhibitor, partial curve, poor fit]"
23,O=C(N/N=C/c1cccs1)c1cc(-c2cccc3ccccc23)n[nH]1,"inconclusive [inhibitor, single point]"
24,CC1CCc2cccc3c2N1c1cc(C#N)c(C#N)cc1O3 (stereo unspecified),"inconclusive [inhibitor, partial curve]"

row,Structure (SMILES),Potency
1,COc1cccc(CCC2C(=O)CCCC2=O)c1,"inconclusive [inhibitor, full curve]"
2,O=C(Nc1ccc(F)cc1)C1CCN(c2ncnc3c2nc2n3CCCCC2)CC1,inactive
3,O=C(N/N=C/C(Br)=C/c1ccccc1)c1ccncc1,"inconclusive [inhibitor, single point]"
4,C[C@@H](C(=O)Nc1ccc2ccccc2c1)[C@H]1C[C@]1(C)[C@H](NS(=O)(=O)c1ccccc1)c1ccccc1,"inconclusive [inhibitor, partial curve]"
5,CCN(CC)c1ccc(NC(=O)c2c(OC)cccc2OC)c(C)c1,"inconclusive [inhibitor, partial curve]"
6,Cc1ccc(S(=O)(=O)N2CC2(C)CCl)cc1 (stereo unspecified),"inconclusive [inhibitor, single point]"
7,CC1=Nc2ccccc2/C1=C\c1nc(-c2ccccc2)oc1O,"inconclusive [inhibitor, single point]"
8,COCC(C)Nc1ncnc2c1cnn2-c1ccc(Cl)cc1 (stereo unspecified),"inconclusive [inhibitor, partial curve]"
9,CCOC(=O)N1CCC(N(CCOC)C(=O)Nc2ccc(Cl)c(Cl)c2)CC1,"inconclusive [inhibitor, partial curve]"
10,Cc1ccc(COC(=O)NCc2cccnc2)cc1,inactive
11,S=C(Nc1ccc(Br)cc1)NC1CCCC1,inactive
12,CC(C)Oc1ccc(S(=O)(=O)N2CCOCC2)cc1NC(=O)C1=NN(c2ccccc2)C(=O)CC1,"inconclusive [inhibitor, partial curve]"
13,COc1ccc(C)cc1NC(=O)c1ccccc1NS(=O)(=O)c1ccc(Cl)s1,"inconclusive [inhibitor, single point]"
14,c1ccc2c(-c3c[nH]c4ccccc34)c3ccccc3nc2c1,"inconclusive [inhibitor, single point]"
15,Cc1ccc(C(=O)N/N=C/c2ccoc2)cc1C,inactive
16,Cn1c(C(=O)OC(C(=O)NC(C)(C)C)c2cccnc2)cc2sccc21 (stereo unspecified),inactive
17,CCOc1ccc(/C=C2/Sc3ccc(C(=O)NCC4CCCO4)cc3N(C)C2=O)cc1OC (stereo unspecified),"inconclusive [inhibitor, single point]"
18,NC(=O)c1ccsc1NC(=O)CSc1nc2ccccc2c(=O)n1CCCO,"inconclusive [inhibitor, single point]"
19,COC(=O)c1sc2ccccc2c1-n1cccc1C(=O)C(=O)Nc1ccccc1,"inconclusive [inhibitor, partial curve]"
20,O=C(/C=N/O)Nc1ccc2sc3ccccc3c2c1,active: 12.6 µM
21,NC(N)=N/N=C/c1ccc(OCc2ccccc2Cl)cc1,"inconclusive [inhibitor, single point]"
22,CN(C)C(=O)On1c(-c2ccccc2)nc2ccc(Cl)cc21,"inconclusive [inhibitor, partial curve]"
23,Cc1ccn2c(C(=O)N/N=C\c3ccccc3[N+](=O)[O-])c(C)nc2c1,"inconclusive [inhibitor, partial curve]"
